The values below come from PubChem BioAssay AID651598 (Sanford-Burnham Center for Chemical Genomics, 2012).

Some entries of the source have several records that differ or are many. Only these are listed.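 Rule for the calls: active = CXCR6 IC50 under 10 µM and IC50 at the unrelated APJ receptor at least five times higher; inactive = the rest.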 The source may hold further records. Values that stand side by side repeat one measurement in other runs, samples, wells, individuals or studies. Records carry a tag for their origin. A, B and so on number the origins entry by entry.

For this assay, the target named is C-X-C chemokine receptor type 6 (Homo sapiens) (UniProt O00574). As to the kind of experiment: APJ beta-arrestin recruitment blockade alongside CXCR6 – cell-based, DiscoveRx, panel, CHO-K1, counter-screen for CXCR6 antagonist project, SAR follow-up (AID 651598). The note with it: CHO-K1 PathHunter beta-arrestin luminescence, antagonist mode, mean of runs.
Sequence of UniProt O00574 (O00574 whole entry, looked up): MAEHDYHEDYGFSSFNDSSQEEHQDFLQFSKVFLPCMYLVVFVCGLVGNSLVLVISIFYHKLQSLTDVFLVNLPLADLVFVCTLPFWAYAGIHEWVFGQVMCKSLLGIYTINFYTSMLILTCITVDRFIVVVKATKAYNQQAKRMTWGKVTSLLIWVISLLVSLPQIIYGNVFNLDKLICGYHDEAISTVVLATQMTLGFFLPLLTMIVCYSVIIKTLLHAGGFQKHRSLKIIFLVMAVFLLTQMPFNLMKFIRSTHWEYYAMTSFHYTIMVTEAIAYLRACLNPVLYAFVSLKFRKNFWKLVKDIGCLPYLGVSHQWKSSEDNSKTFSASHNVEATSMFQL

Take `COc1cc(C(=O)NC2CC3CCCC(C2)N3CC(=O)Nc2ccccc2)cc(OC)c1OC` (configuration not stated): the IC50 was 6.08 µM [sample A] and inactive [sample B] and inactive: > 80 µM [sample C]. For the compound `COc1cc(C(=O)NC2CC3CCC(C2)N3CC(=O)Nc2ccccc2)cc(OC)c1OC` (configuration not stated), the IC50 entry is “inactive [sample A] and inactive: > 80 µM [sample B]”.
